Among all 310,000 compounds or so, about 14,000 (4.5%) showed an effect of 50% or more. Effects have a minus sign here. This is one part of the list.
These compounds were tested against human ether-à-go-go-related gene (hERG) potassium channel (human, UniProt Q12809) (assay: primary screen, population patch clamp on CHO cells stably expressing hERG).
Sequence of human ether-à-go-go-related gene (hERG) potassium channel (Q12809 whole entry, looked up): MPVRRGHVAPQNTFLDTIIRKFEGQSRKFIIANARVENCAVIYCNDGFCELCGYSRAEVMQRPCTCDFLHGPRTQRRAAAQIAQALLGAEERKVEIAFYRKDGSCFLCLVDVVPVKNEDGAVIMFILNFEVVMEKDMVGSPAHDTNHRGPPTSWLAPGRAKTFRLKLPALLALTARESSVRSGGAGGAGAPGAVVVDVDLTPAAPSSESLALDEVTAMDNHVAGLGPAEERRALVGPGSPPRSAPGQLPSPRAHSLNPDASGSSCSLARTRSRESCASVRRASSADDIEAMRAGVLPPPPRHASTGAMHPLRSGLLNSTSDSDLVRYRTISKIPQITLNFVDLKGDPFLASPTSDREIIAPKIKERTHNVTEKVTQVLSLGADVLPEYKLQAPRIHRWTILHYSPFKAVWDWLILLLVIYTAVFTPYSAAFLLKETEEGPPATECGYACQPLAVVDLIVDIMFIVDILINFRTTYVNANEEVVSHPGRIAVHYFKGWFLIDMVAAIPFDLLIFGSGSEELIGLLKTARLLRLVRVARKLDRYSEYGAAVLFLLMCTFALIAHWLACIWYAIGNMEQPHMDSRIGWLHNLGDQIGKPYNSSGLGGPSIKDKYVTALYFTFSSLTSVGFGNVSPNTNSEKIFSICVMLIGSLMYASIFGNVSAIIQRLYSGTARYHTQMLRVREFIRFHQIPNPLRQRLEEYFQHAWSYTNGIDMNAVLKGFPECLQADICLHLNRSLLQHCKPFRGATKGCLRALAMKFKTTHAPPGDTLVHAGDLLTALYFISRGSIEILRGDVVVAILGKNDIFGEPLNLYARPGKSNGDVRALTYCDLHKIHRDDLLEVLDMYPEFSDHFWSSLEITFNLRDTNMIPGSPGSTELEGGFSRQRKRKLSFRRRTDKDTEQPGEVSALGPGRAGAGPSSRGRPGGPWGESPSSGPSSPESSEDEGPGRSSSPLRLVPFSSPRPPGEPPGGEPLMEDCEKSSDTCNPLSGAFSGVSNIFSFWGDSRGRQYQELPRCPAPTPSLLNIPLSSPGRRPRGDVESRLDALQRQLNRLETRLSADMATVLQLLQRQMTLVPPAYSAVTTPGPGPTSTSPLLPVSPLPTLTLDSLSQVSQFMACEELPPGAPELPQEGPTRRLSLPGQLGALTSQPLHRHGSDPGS
In the case of `NS(=O)(=O)c1ccc(NC(=O)c2c(Cl)cccc2Cl)cc1`, the “hERG current change (%, negative = inhibition) at 10uM” value was 9.38%. With `COc1ccc(Cl)cc1NC(=S)N(Cc1ccccc1C)CC1CCC(C(=O)O)CC1` (stereo not shown) the “hERG current change (%, negative = inhibition) at 10uM” value was 38.1%. In the case of `Nc1nnc(CCC2CCCCC2)s1`, the “hERG current change (%, negative = inhibition) at 10uM” value was 15.9%. In the case of `O=C(COc1cc(F)ccc1[N+](=O)[O-])Nc1cccc(S(=O)(=O)NC2=NCCC2)c1`, the “hERG current change (%, negative = inhibition) at 10uM” value was 14.1%. `COc1ccc(CNC(=O)c2coc(=O)c3ccccc23)c(OC)c1` was tested, and the “hERG current change (%, negative = inhibition) at 10uM” value was 8.38%. `Cc1c2cnn(CC(=O)NCCN3CCOCC3)c(=O)c2c(C)n1Cc1ccccc1` was tested, and the “hERG current change (%, negative = inhibition) at 10uM” value was -4.24%. For `O=C(O)C(=O)O.O=[N+]([O-])c1ccc(S(=O)(=O)N2CCN(Cc3c[nH]c4ccccc34)CC2)cc1`, the “hERG current change (%, negative = inhibition) at 10uM” value was -54.5%. With `O=C(Nc1ccc(N2CCOCC2)c(Cl)c1)c1cccc(F)c1` the “hERG current change (%, negative = inhibition) at 10uM” value was -21.2%. In the case of `CCOc1cc(C(=O)OCC(=O)N(C)c2ccccc2)cc(OCC)c1OCC`, the “hERG current change (%, negative = inhibition) at 10uM” value was -17.6%. `Cc1c(NC(=O)CSc2nc(N)cc(N)n2)c(=O)n(-c2ccccc2)n1C` was tested, and the “hERG current change (%, negative = inhibition) at 10uM” value was 19.1%. In the case of `O=C1NC(=O)C(=Cc2ccc3ccccc3c2)C(=O)N1`, the “hERG current change (%, negative = inhibition) at 10uM” value was 11.5%. For `Cc1ccc(NC(=O)CSc2nc3ccccc3nc2N2CCOCC2)cc1`, the “hERG current change (%, negative = inhibition) at 10uM” value was -24.5%. In the case of `Cc1c(NC(=O)C(C)OC(=O)C(NC(=O)c2ccco2)C(C)C)c(=O)n(-c2ccccc2)n1C` (stereo not shown), the “hERG current change (%, negative = inhibition) at 10uM” value was -10.3%. With `CC(C)(C)NC(=O)CCc1ncc(C(F)(F)F)cc1Cl` the “hERG current change (%, negative = inhibition) at 10uM” value was 5.77%. With `Cc1ccc(C(CNC(=O)c2ccco2)N2CCN(C)CC2)cc1` (stereo not shown) the “hERG current change (%, negative = inhibition) at 10uM” value was -11.1%. For `COc1ccc2nc(SCC(=O)NC3CCCCC3)[nH]c2c1`, the “hERG current change (%, negative = inhibition) at 10uM” value was 1.06%. `COc1ccc(CCNC(=O)Cn2cnc3c2c(=O)n(C)c(=O)n3C)cc1OC` was tested, and the “hERG current change (%, negative = inhibition) at 10uM” value was 7.63%. With `CC1CCN(C(C(=O)Nc2ccc3c(c2)OCO3)c2ccccc2)CC1` (stereo not shown) the “hERG current change (%, negative = inhibition) at 10uM” value was -21.4%. For `COc1ccc(-n2c(=O)[nH]c3ccccc3c2=O)cc1`, the “hERG current change (%, negative = inhibition) at 10uM” value was 11.9%. `O=[N+]([O-])c1ccc(CP(=O)(c2ccccc2)c2ccccc2)cc1` was tested, and the “hERG current change (%, negative = inhibition) at 10uM” value was -2.54%. For `COc1cc(OC)c(C(=O)OCCCOC(=O)c2cc(OC)c(OC)cc2OC)cc1OC`, the “hERG current change (%, negative = inhibition) at 10uM” value was -0.942%. For `CCN(CC)CCCNC(=O)C1CCC(=O)N(c2ccc(OC)cc2)C1c1ccc(F)cc1` (stereo not shown), the “hERG current change (%, negative = inhibition) at 10uM” value was 1.14%. In the case of `O=C(CSC1CC(=O)N(c2ccc(C(=O)O)cc2)C1=O)Nc1ccc(Cl)cc1` (stereo not shown), the “hERG current change (%, negative = inhibition) at 10uM” value was 6.13%. In the case of `COc1ccc(OC)c(-c2cc(C(=O)Nc3cccc(Cl)c3)no2)c1`, the “hERG current change (%, negative = inhibition) at 10uM” value was 3.77%. For `O=C(CCc1c[nH]c2ccccc12)N1CCN(c2ccc(O)cc2)CC1`, the “hERG current change (%, negative = inhibition) at 10uM” value was -11.3%. For `COc1cc([N+](=O)[O-])cc(/C=N/NC(=O)c2cccnc2)c1O`, the “hERG current change (%, negative = inhibition) at 10uM” value was 2.46%. `CC(C)(C)OC(=O)N1CCCC(C(=O)CC#N)C1` (stereo not shown) was tested, and the “hERG current change (%, negative = inhibition) at 10uM” value was 0.525%. In the case of `COc1cc(C(=O)Nc2ccc(S(=O)(=O)N(C)c3ccccc3)cc2)cc(OC)c1OC`, the “hERG current change (%, negative = inhibition) at 10uM” value was -3.53%. `CCCCNC(=O)CSc1nc2n[nH]c(C)c2c(=N)n1-c1cccc(Cl)c1C` was tested, and the “hERG current change (%, negative = inhibition) at 10uM” value was -1.7%. In the case of `Cc1nn(C)c(C)c1/C=C(\C#N)C(N)=O`, the “hERG current change (%, negative = inhibition) at 10uM” value was 12.3%. With `CCN(CC)S(=O)(=O)c1cc(C(=O)Nc2cccnc2)ccc1Cl` the “hERG current change (%, negative = inhibition) at 10uM” value was -67.9%. `CN(c1ccc(C(=O)N2CCCCC2)cc1)S(=O)(=O)c1ccccc1` was tested, and the “hERG current change (%, negative = inhibition) at 10uM” value was -10.8%. With `CC(C)(C)c1cc(NC(=O)CSc2nnc(N)s2)n(-c2ccccc2)n1` the “hERG current change (%, negative = inhibition) at 10uM” value was -29.1%. In the case of `CSCCC(NC(=O)c1ccco1)C(=O)Nc1ccc(C)c(S(=O)(=O)N2CCOCC2)c1` (stereo not shown), the “hERG current change (%, negative = inhibition) at 10uM” value was -4.74%. In the case of `NC(=O)c1ccsc1NC(=O)CSc1nc2ccccc2c(=O)n1CCCO`, the “hERG current change (%, negative = inhibition) at 10uM” value was -9.94%. For `CC(C)OC(=O)Cn1nnc2c(cnn2-c2ccccc2)c1=O`, the “hERG current change (%, negative = inhibition) at 10uM” value was -11.1%. For `CC(Oc1ccc(F)cc1)C(=O)Nc1cc(S(=O)(=O)N2CCCCC2)ccc1N1CCOCC1` (stereo not shown), the “hERG current change (%, negative = inhibition) at 10uM” value was -5.21%. With `CC(C)C(OC(=O)c1cccs1)C(=O)NCc1ccc(F)cc1` (stereo not shown) the “hERG current change (%, negative = inhibition) at 10uM” value was 4.04%. `Cc1cccc(Nc2nnc(SCC(=O)Nc3ccccc3[N+](=O)[O-])s2)c1` was tested, and the “hERG current change (%, negative = inhibition) at 10uM” value was 10.5%. In the case of `Cc1ccc(C(=O)O)cc1[N+](=O)[O-]`, the “hERG current change (%, negative = inhibition) at 10uM” value was 16.1%. With `Cc1ccc(S(=O)(=O)n2nc(-c3ccc(Cl)cc3)nc2NCc2ccco2)cc1` the “hERG current change (%, negative = inhibition) at 10uM” value was -4.03%. In the case of `O=[N+]([O-])c1ccccc1S(=O)(=O)NCCc1ccncc1`, the “hERG current change (%, negative = inhibition) at 10uM” value was 14.9%. In the case of `O=[N+]([O-])c1ccc(Nc2ccc(Cl)cc2)nc1`, the “hERG current change (%, negative = inhibition) at 10uM” value was 21.7%. In the case of `CCn1cc(CN2CCCC(C(=O)Nc3cccc(-c4cc5ccccc5[nH]4)c3)C2)cn1` (stereo not shown), the “hERG current change (%, negative = inhibition) at 10uM” value was -6.49%. `COc1ccc(N2CCN(C(=O)c3cccnc3SCc3cccc(Br)c3)CC2)cc1` was tested, and the “hERG current change (%, negative = inhibition) at 10uM” value was 0.381%. For `CCCCOC(=O)CSC(=S)N(C)Cc1cccs1`, the “hERG current change (%, negative = inhibition) at 10uM” value was -7.39%. With `Nc1cc(S(=O)(=O)N2CCCCC2)ccc1N1CCOCC1` the “hERG current change (%, negative = inhibition) at 10uM” value was 4.5%. With `COc1ccc(-c2csc(NC(=O)CSc3ccc(Br)cc3)n2)c(OC)c1` the “hERG current change (%, negative = inhibition) at 10uM” value was 17.4%. In the case of `O=c1cc(CSc2ccccn2)nc(N2CCN(c3ccccc3)CC2)[nH]1`, the “hERG current change (%, negative = inhibition) at 10uM” value was -17%. For `O=C(COC(=O)CNC(=O)c1ccccc1F)Nc1ccc2[nH]c(=O)[nH]c2c1`, the “hERG current change (%, negative = inhibition) at 10uM” value was 10.2%. In the case of `CCc1c(C(=O)NN2C(=O)C3C4CCC(O4)C3C2=O)csc1C` (stereo not shown), the “hERG current change (%, negative = inhibition) at 10uM” value was 13.3%. With `O=C(O)c1ccc(Nc2nc(-c3cccnc3)cs2)cc1O` the “hERG current change (%, negative = inhibition) at 10uM” value was 9.69%. `COc1ccccc1-[n+]1c(C)cc(/C=C2\Sc3ccccc3N2C)cc1C.[I-]` was tested, and the “hERG current change (%, negative = inhibition) at 10uM” value was -69.6%. For `Cc1cc2nc(NCCCO)n(CC(=O)c3cc(C(C)(C)C)c(O)c(C(C)(C)C)c3)c2cc1C`, the “hERG current change (%, negative = inhibition) at 10uM” value was 7.23%. For `COc1ccc(CC(=O)OCC(=O)N2CCN(S(=O)(=O)c3ccc(C)cc3C)CC2)cc1`, the “hERG current change (%, negative = inhibition) at 10uM” value was -10.8%.
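Note: peak tail current of the secondary pulse compared with the same well before compound.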
